Several values for one entry are separate records, joined by “and”; a condition that tells them apart may be missing. Equal entries are not always repeated. The whole screen tested about 110,000 compounds, of which about 230 (0.21%) showed an effect of 50% or more. This is one part of the list.
target: DPAP1 (Plasmodium falciparum, UniProt Q8IIJ9); experiment: primary screen, percent inhibition; read by cleavage of a fluorogenic dipeptide substrate; higher = more effect of the substance; parameters: species or system P. falciparum D10 trophozoite lysates; single well
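Note: 30 min substrate incubation versus DMSO and 10 µM JCP410 controls.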

Sequence of DPAP1 (Q8IIJ9 whole entry, looked up): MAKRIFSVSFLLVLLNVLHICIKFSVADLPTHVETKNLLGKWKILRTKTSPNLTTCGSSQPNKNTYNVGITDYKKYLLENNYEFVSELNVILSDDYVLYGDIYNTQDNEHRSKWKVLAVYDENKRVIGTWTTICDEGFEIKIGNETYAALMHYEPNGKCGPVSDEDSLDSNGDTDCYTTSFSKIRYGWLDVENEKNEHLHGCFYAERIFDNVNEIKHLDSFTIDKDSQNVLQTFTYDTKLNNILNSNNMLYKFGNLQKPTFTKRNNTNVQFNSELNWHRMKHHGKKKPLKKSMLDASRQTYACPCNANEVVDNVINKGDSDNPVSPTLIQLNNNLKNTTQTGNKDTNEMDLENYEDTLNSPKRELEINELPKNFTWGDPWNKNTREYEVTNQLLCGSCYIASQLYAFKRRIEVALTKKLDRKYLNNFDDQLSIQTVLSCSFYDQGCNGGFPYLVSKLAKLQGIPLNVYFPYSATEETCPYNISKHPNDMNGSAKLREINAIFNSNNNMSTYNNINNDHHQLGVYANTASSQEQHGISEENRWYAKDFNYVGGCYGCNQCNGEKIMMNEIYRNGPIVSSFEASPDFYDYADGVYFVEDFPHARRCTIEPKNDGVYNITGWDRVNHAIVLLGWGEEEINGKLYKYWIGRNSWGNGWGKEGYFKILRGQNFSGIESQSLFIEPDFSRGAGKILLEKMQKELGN

Row | Structure (SMILES) | % Inhibition @ 10 uM
1 | COCCNc1oc(/C=C/c2cccs2)nc1C#N | 4.64%
2 | CCc1ccc(C(=O)/C=C/c2ccccn2)cc1 | 1.48%
3 | Cc1c(C(=O)N2CCCC2)oc2c1-c1nn(CC(=O)NCCc3ccccc3)cc1CC2 | -1.38%
4 | CCCCN(Cc1ccccc1)Cc1ccccc1O | 2.99%
5 | COc1ccccc1C(CNC(=O)c1oc2ccc(Cl)cc2c1C)N(C)C (stereo not shown) | 5.54%
6 | CCCc1cc(O)n2nc(-c3ccc(Cl)cc3)nc2n1 | -0.671%
7 | Cc1ccc(N)c(C(O)c2ccccc2)c1 (stereo not shown) | 3.42%
8 | CCOc1ccc(NCC(=O)Nc2ccc(Cl)cc2C)cc1 | -2.86%
9 | CC(C)CNC(=O)c1cc(-c2ccc(F)cc2)on1 | -2.65%
10 | O=C(NC1CCCC1)c1cc(-c2ccc3c(c2)OCO3)nc2ccccc12 | 0.931%
11 | CC1CCc2c(sc3nnn(C)c(=O)c23)C1 (stereo not shown) | 3.87%
12 | O=[N+]([O-])c1ccccc1S(=O)(=O)N(Cc1ccccc1)Cc1ccccc1 | -0.0369%
13 | CCc1cc2c(cc3c(=O)n(CC(=O)NCCC4=CCCCC4)ncn32)s1 | 1.68%
14 | CC1=C(c2ccc(C)cc2)S(=O)(=O)N=C1NCCCN1C(C)CCCC1C (stereo not shown) | 0.623%
15 | COc1ccc(NC(=O)C2CC(=O)N(C)/C(=N/c3ccc(C)c(Cl)c3)S2)cc1 (stereo not shown) | -2.83%
16 | COCCCn1c(-c2ccco2)nc2ccccc2c1=O | -14.9%
17 | Cc1ccc(S(=O)(=O)NCC2CCC(C(=O)NCc3cccs3)CC2)cc1 (stereo not shown) | 0.718%
18 | CCOC(=O)c1c(NC(=O)C(C)C)sc2c1CCC2 | 2.45%
19 | CCCCN1C(=O)C(CC(=O)NCC)S/C1=N/c1ccccc1 (stereo not shown) | -6.67%
20 | Cc1ccc(-n2nc3c(=O)n(CCCC(=O)NCCC(C)C)nc(C)c3c2C)cc1 | -4.77%
21 | N#CC1=C(N)N(c2ccc(Br)cn2)C2=C(C(=O)CCC2)C1c1cccs1 (stereo not shown) | -4.67%
22 | CC(=O)Nn1c(C)nnc1-n1nc(C)cc1C | 1.81%
23 | O=C(Nc1ccc(C(=O)N2CCOCC2)cc1)c1c(Cl)cccc1Cl | -1.96%
24 | COc1ccc(CCc2ncccc2O)cc1 | 1.29% and 6.61%
25 | O=C1S/C(=C/c2cccc(O)c2)C(=O)N1Cc1ccccc1 | 0.964%

Row | Structure (SMILES) | % Inhibition @ 10 uM
26 | Cc1c(C(=O)NCc2ccccc2)oc2ccc(S(=O)(=O)N(C)C3CCCCC3)cc12 | 13.3%
27 | Cc1nn(C(C)C(=O)NC(C)C23CC4CC(CC(C4)C2)C3)c(=O)c2c1sc1ccccc12 (stereo not shown) | -5.78%
28 | CCc1ccc(-n2nc(C)c3c(C(=O)NCc4ccc(C)o4)cc(C)nc32)cc1 | 6.13%
29 | CC(O)CN(CCc1ccccc1)CC(C)O (stereo not shown) | -0.603%
30 | CC(NC(=O)CCc1ccc(S(=O)(=O)NC2CCCCC2)cc1)c1ccccc1 (stereo not shown) | -2.92%
31 | CC(C(=O)NCc1ccco1)n1cc(C(=O)c2ccco2)c2ccccc21 (stereo not shown) | -8.95%
32 | O=C1C2CC=C(Cl)CC2C(=O)N1C1CCCCC1 (stereo not shown) | 9.73%
33 | COc1nccnc1NS(=O)(=O)c1ccc(NC(=O)c2ccc(Cl)cc2)cc1 | 0.00178%
34 | CC(CN(CCN(C)C)Cc1ccccc1)c1ccccc1 (stereo not shown) | -0.292%
35 | CC(C)C[C@H](NC(=O)OCc1ccccc1)C(=O)N[C@@H](CCc1ccccc1)C(=O)CN(Cc1ccccc1)C(=O)OCc1ccccc1 | 0.744%
36 | O=C(COc1ccc(Br)cc1)Nc1ccccc1C(F)(F)F | -2.5%
37 | COc1cc(C2Nc3c(C)cccc3-c3cc(C)nn32)cc(OC)c1O (stereo not shown) | -0.116%
38 | Nc1cc(Br)cc2cccnc12 | -0.856%
39 | CCN(CC)C(=O)C1CCCN(Cc2ccc(SC)cc2)C1 (stereo not shown) | -6.36%
40 | COc1ccc(N(CC(=O)N2CCCCCC2)S(=O)(=O)c2ccc(OC)c(OC)c2)cc1 | -1.36%
41 | C#CCOc1c(Br)cc(C2C(C#N)=C(N)Oc3[nH]nc(C)c32)cc1OC (stereo not shown) | 3.92%
42 | COc1cc2c(cc1OC)C(c1ccc(C)cc1)N(C)CC2 (stereo not shown) | -6.29%
43 | CCOC(=O)C1=C(C)OC(N)=C(C#N)C1c1cccc2ccccc12 (stereo not shown) | 3.03%
44 | CCOc1ccc(N2C(=O)CC(NCc3ccncc3)C2=O)cc1 (stereo not shown) | 10.7%
45 | COCCNC(=O)C1c2ccccc2C(=O)N(CCOC)C1c1c[nH]c2ccccc12 (stereo not shown) | 1.86%
46 | CCOCCCNC(=O)c1ccc2c(c1)ncn2-c1cc(OC)c(OC)c(OC)c1 | 1.2%
47 | O=S(=O)(c1ccccc1)c1nnn2c1nc(NCc1ccc3c(c1)OCO3)c1ccccc12 | -6.68%
48 | Cc1cccn2c(=O)c3cc(C(=O)Nc4ccccc4)n(C)c3nc12 | 5.26%
49 | CCc1ccc(OCC(=O)Nc2ccc(S(=O)(=O)Nc3nccs3)cc2)c(Br)c1 | -1.11%
50 | CCc1c(C)sc(NC(=O)c2cc(-c3cc(OC)ccc3OC)on2)c1C#N | 1.15%

Row | Structure (SMILES) | % Inhibition @ 10 uM
51 | CCOC(=O)C1=C(CN2CCN(c3ncccn3)CC2)NC(=O)NC1c1cccs1 (stereo not shown) | -0.913%
52 | O=C(COc1ccc(Cl)cc1)Nc1cc(Cl)cc(Cl)c1 | 4.96%
53 | O=C(CC1CS(=O)(=O)CC1CC(=O)Nc1ccccc1)Nc1ccccc1 (stereo not shown) | 4.28%
54 | CC1CN(Cc2ccccc2)CCC1(O)c1ccccc1 (stereo not shown) | 3.1%
55 | O=P(O)(CN1CCCCCC1)CN1CCCCCC1 | -4.18%
56 | CCOc1ccc(C(C)NC(=O)c2ccccc2OC)cc1OCC (stereo not shown) | 0.475%
57 | O=C(O)C1C2c3ccccc3C(c3ccccc32)C1C(=O)Nc1ccccc1 (stereo not shown) | -1.74%
58 | CN1CC2CCCC3(C1)C(=O)NC1(CCCCC1)N=C23 (stereo not shown) | -9.63%
59 | NC(=O)C1CCN(Cc2ccc(Cl)cc2)CC1 | -1.64%
60 | O=c1oc(-c2cccs2)nc2ccccc12 | -2.18%
61 | COc1ccc(NC(=O)c2ccc(Cl)cc2)c([N+](=O)[O-])c1 | 2.46%
62 | N#C/C(=C(/O)c1ccco1)c1nc2ccccc2s1 | -4.43%
63 | O=C1CCCc2sccc2N1 | 5.92%
64 | CC(C)Cn1cc(NC(=O)NCCc2ccco2)c2ccccc2c1=O | 2.76%
65 | Nc1nc(-c2cccnc2)nn1S(=O)(=O)c1ccccc1 | 5.5%
66 | CCC(C(=O)NCc1ccco1)n1c(SCc2ccc(F)cc2)nc2cccnc21 (stereo not shown) | -2.5%
67 | CCn1c(=O)c2sccc2n2c(CCCC(=O)NCCNC(C)=O)nnc12 | 4.48%
68 | COc1cc(C2C(C#N)=C(N)OC3=C2C(=O)CC(C)(C)C3)cc(OC)c1O (stereo not shown) | -0.0372%
69 | COCC(C)NCc1ccc(F)c(F)c1 (stereo not shown) | 0.177%
70 | CC(C)(C)n1nc2c(c1NC(=O)c1c(F)cccc1F)CS(=O)(=O)C2 | 0.111%
71 | O=C(Nc1cc2c(oc1=O)CCCC2=O)c1ccccc1 | -0.424%
72 | CC(C)C(NS(=O)(=O)c1cccc2nsnc12)C(=O)Nc1nccs1 (stereo not shown) | -4.1%
73 | COc1ccc(NC(=O)c2ccc3c(c2)C(=O)N(CC2CCCO2)C3=O)cc1O (stereo not shown) | -0.496%
74 | CN1CCCN(Cc2cccc(F)c2)CC1 | -0.192%
75 | O=C(NC1(C(F)(F)F)NC(=O)N(CCc2ccccc2)C1=O)c1ccccc1 (stereo not shown) | 3.54%

Row | Structure (SMILES) | % Inhibition @ 10 uM
76 | COc1cc2oc(=O)c(CC(=O)NCc3ccco3)c(C)c2cc1OC | 0.895%
77 | CCc1c(C)sc(NC(=O)c2cc(-c3ccc(O)cc3)on2)c1C#N | 6.29%
78 | c1cncc(CNCCc2c[nH]c3ccccc23)c1 | 0.147%
79 | O=C(CCC(=O)N1CCN(c2cccc(Cl)c2)CC1)N1CCN(c2cccc(Cl)c2)CC1 | 4.39%
80 | Cc1cccc(NC(=O)CN(c2ccc(Br)cc2)S(C)(=O)=O)c1 | -5.67%
81 | COP(=O)(OC)C(Nc1ccc(Cl)c(Cl)c1)c1ccc(Br)cc1 (stereo not shown) | 0.00178%
82 | COc1ccc(NC(=O)CN(c2cccc(F)c2)S(C)(=O)=O)cc1OC | 0.889%
83 | CCN(CC)S(=O)(=O)c1ccc2ncc(C(=O)NCCc3ccc(OC)c(OC)c3)c(O)c2c1 | -6.91%
84 | O=C(NC1=NCCS1)C1CC(=O)N(c2ccc(F)cc2)C1 (stereo not shown) | -5.3%
85 | COc1cccc(N(CC(=O)Nc2ccc(OC)cc2OC)S(C)(=O)=O)c1 | 2.02%
86 | O=C(NC1(C(F)(F)F)N=C2SCCN2C1=O)c1ccccc1F (stereo not shown) | -5.4%
87 | CC(=O)NC(CC(=O)O)c1ccccc1 (stereo not shown) | -6.82%
88 | CCCN1C(=O)C(O)(CC(=O)c2cccs2)c2ccccc21 (stereo not shown) | 3.17%
89 | COc1ccc(-c2nc3c(=O)[nH]c(=O)n(C)c3[nH]2)cc1 | -3.05%
90 | O=C(NCc1ccc(OC(F)(F)F)cc1)C1CCN(c2cnccn2)CC1 | -6.43%
91 | CC(=C1C(=O)c2ccccc2C1=O)N1CCN(CCO)CC1 | -9.79%
92 | CCc1ccc(CN(Cc2ccco2)C(=O)COc2ccccc2)cc1 | 2.29%
93 | COc1ccc(C(=O)N(Cc2nc(-c3ccc(C)cc3)no2)C(C)C)cc1OC | 3.33%
94 | CCN1C=C(Cc2ccc(F)cc2)C2=C(C1)C(c1ccc(F)cc1)C(C#N)=C(N)O2 (stereo not shown) | 4.32%
95 | N#Cc1c(NC(=O)c2ccc(Cl)c(S(=O)(=O)N3CCOCC3)c2)sc2c1CCCC2 | -3.26%
96 | O=C(NC1CCCCC1)c1ccc(Br)c(S(=O)(=O)N2CCCCC2)c1 | 5.43%
97 | COc1cc(CNc2ccc3c(c2)OCCO3)ccc1OCC(=O)NC1CCCCC1 | -1.63%
98 | COc1ccc(/C=C2\S/C(=N/c3ccc(C(=O)O)cc3)N(C)C2=O)cc1O | -3.23%
99 | CCOc1ccc(CN(C(=O)Cc2coc3ccc(C)cc23)C2CCS(=O)(=O)C2)cc1 (stereo not shown) | 2.62%
100 | Brc1c(CSc2nc3ccccc3[nH]2)nc2ccccn12 | -5.41%

Reference: publication PMC6919601, “Identification of Plasmodium dipeptidyl aminopeptidase allosteric inhibitors by high throughput screening” (PLoS ONE, 2019)
